The antibiotic and cytotoxicity screens of Wong et al. (2023)
The list shows a part of the results.

How the values were obtained:
HSkMC = human skeletal muscle cells; experiment: cytotoxicity call (relative viability < 0.9); settings: 10 µM
HepG2 = experiment: cytotoxicity call (relative viability < 0.9); settings: 10 µM
S. aureus RN4220 = experiment: growth inhibition call (relative growth <= 0.2); settings: 50 µM

COc1ccc(-c2cnc3c(c2)C(=O)N([C@H](C)CO)C[C@H](C)[C@@H](CN(C)C(=O)Cc2ccncc2)O3)cc1
inactive: cytotoxicity call (HSkMC) | cytotoxicity call (HepG2) | growth inhibition call (S. aureus RN4220)

C[C@@H]1CN([C@H](C)CO)C(=O)c2cc(NC(=O)Nc3ccc(C(F)(F)F)cc3)ccc2O[C@H]1CN(C)Cc1ccc(C(=O)Nc2ccccc2N)cc1
inactive: cytotoxicity call (HSkMC) | cytotoxicity call (HepG2) | growth inhibition call (S. aureus RN4220)

COCCNC(=O)C[C@H]1CC[C@H]2[C@@H](COC[C@@H](O)CN2S(=O)(=O)c2ccccc2C)O1
inactive: cytotoxicity call (HSkMC) | cytotoxicity call (HepG2) | growth inhibition call (S. aureus RN4220)

C[C@@H]1CN([C@H](C)CO)C(=O)c2cc(NS(=O)(=O)c3ccccc3)ccc2O[C@@H]1CN(C)S(C)(=O)=O
inactive: cytotoxicity call (HSkMC) | cytotoxicity call (HepG2) | growth inhibition call (S. aureus RN4220)

C[C@H]1CCCCO[C@@H](CN(C)C(=O)NC2CCCCC2)[C@@H](C)CN([C@@H](C)CO)C(=O)c2cc(NC(=O)Nc3cccc4ccccc34)ccc2O1
inactive: cytotoxicity call (HSkMC) | cytotoxicity call (HepG2) | growth inhibition call (S. aureus RN4220)

COc1cc(OC)cc(C(=O)N(Cc2ccco2)Cc2cc3ccc(SC)cc3nc2-c2cccc(OC)c2)c1
inactive: cytotoxicity call (HSkMC) | cytotoxicity call (HepG2) | growth inhibition call (S. aureus RN4220)

Cc1noc(C)c1NC(=O)Nc1ccc2c(c1)C(=O)N([C@H](C)CO)C[C@H](C)[C@H](CN(C)Cc1ccc(C(F)(F)F)cc1)O2
inactive: cytotoxicity call (HSkMC) | cytotoxicity call (HepG2) | growth inhibition call (S. aureus RN4220)

Cc1nnc(=O)[nH]c1NNc1ccccc1
inactive: cytotoxicity call (HSkMC) | cytotoxicity call (HepG2) | growth inhibition call (S. aureus RN4220)

COc1ccc(S(=O)(=O)N(C)C[C@H]2Oc3cc(C4=CCCC4)ccc3S(=O)(=O)N([C@H](C)CO)C[C@H]2C)cc1
inactive: cytotoxicity call (HSkMC) | cytotoxicity call (HepG2) | growth inhibition call (S. aureus RN4220)

COC(=O)c1c(CC[C@@H](CO)NC(=O)N[C@H](Cc2ccccc2)Cn2cc(-c3ccccn3)nn2)oc(C(C)=O)c1C(=O)OC
inactive: cytotoxicity call (HSkMC) | cytotoxicity call (HepG2) | growth inhibition call (S. aureus RN4220)

CCNC(=O)C[C@H]1C=C[C@@H](NC(=O)C2CC2)[C@H](CO)O1
inactive: cytotoxicity call (HSkMC) | cytotoxicity call (HepG2) | growth inhibition call (S. aureus RN4220)

Cc1ccc(S(=O)(=O)Nc2ccc3c(c2)CC(=O)N([C@@H](C)CO)C[C@@H](C)[C@H](CN(C)C(=O)Nc2ccc(C(F)(F)F)cc2)O3)cc1
inactive: cytotoxicity call (HSkMC) | cytotoxicity call (HepG2) | growth inhibition call (S. aureus RN4220)

Cc1noc(C)c1NC(=O)Nc1cccc2c1O[C@H](CN(C)Cc1ccc(C(F)(F)F)cc1)[C@@H](C)CN([C@@H](C)CO)C2=O
inactive: cytotoxicity call (HSkMC) | cytotoxicity call (HepG2) | growth inhibition call (S. aureus RN4220)

C[C@@H]1CCCCO[C@H](CN(C)S(=O)(=O)c2ccc(F)cc2)[C@@H](C)CN([C@@H](C)CO)C(=O)c2cc(NS(=O)(=O)c3cn(C)cn3)ccc2O1
inactive: cytotoxicity call (HSkMC) | cytotoxicity call (HepG2) | growth inhibition call (S. aureus RN4220)

O=c1c(O)c(-c2ccc(O)c(O)c2)oc2c(OC3OC(CO)C(O)C(O)C3O)c(O)cc(O)c12 (stereo not given)
inactive: cytotoxicity call (HSkMC) | cytotoxicity call (HepG2) | growth inhibition call (S. aureus RN4220)

C[C@H](CO)N1C[C@H](C)[C@@H](CN(C)Cc2ccncc2)Oc2ccc(NS(=O)(=O)c3cn(C)cn3)cc2C1=O
inactive: cytotoxicity call (HSkMC) | cytotoxicity call (HepG2) | growth inhibition call (S. aureus RN4220)

COc1ccc(NC(=O)Nc2ccc3c(c2)CC(=O)N([C@@H](C)CO)C[C@H](C)[C@H](CN(C)S(=O)(=O)c2c(C)noc2C)O3)cc1
inactive: cytotoxicity call (HSkMC) | cytotoxicity call (HepG2) | growth inhibition call (S. aureus RN4220)

Cn1cnc(S(=O)(=O)N2C[C@H](O)COC[C@@H]3O[C@@H](CC(=O)NCc4cccc(F)c4)CC[C@H]32)c1
inactive: cytotoxicity call (HSkMC) | cytotoxicity call (HepG2) | growth inhibition call (S. aureus RN4220)

Cn1cc(S(=O)(=O)N2CCN(c3ccc(F)cc3)CC2)c(=O)n(C)c1=O
inactive: cytotoxicity call (HSkMC) | cytotoxicity call (HepG2) | growth inhibition call (S. aureus RN4220)

C[C@@H]1CN([C@@H](C)CO)C(=O)c2cc(NS(=O)(=O)c3cn(C)cn3)ccc2O[C@@H]1CN(C)Cc1ccncc1
inactive: cytotoxicity call (HSkMC) | cytotoxicity call (HepG2) | growth inhibition call (S. aureus RN4220)

C[C@@H]1CCCCO[C@H](CN(C)C(=O)Nc2ccccc2)[C@H](C)CN([C@H](C)CO)C(=O)c2cc(NC(=O)c3ccncc3)ccc2O1
inactive: cytotoxicity call (HSkMC) | cytotoxicity call (HepG2) | growth inhibition call (S. aureus RN4220)

COc1ccc(S(=O)(=O)N(C)C[C@@H]2Oc3ncc(C#CC4(O)CCCC4)cc3C(=O)N([C@H](C)CO)C[C@@H]2C)cc1
inactive: cytotoxicity call (HSkMC) | cytotoxicity call (HepG2) | growth inhibition call (S. aureus RN4220)

COc1cccc(NC(=O)N[C@H]2CC[C@@H](CC(=O)N3CCN(C)CC3)O[C@@H]2CO)c1
inactive: cytotoxicity call (HSkMC) | cytotoxicity call (HepG2) | growth inhibition call (S. aureus RN4220)

C[C@H]1CN([C@@H](C)CO)C(=O)CCCn2cc(nn2)CO[C@@H]1CN(C)C(=O)Nc1ccc(N2CCCCC2)cc1
inactive: cytotoxicity call (HSkMC) | cytotoxicity call (HepG2) | growth inhibition call (S. aureus RN4220)

C[C@@H]1CN([C@H](C)CO)C(=O)CCCn2cc(nn2)CO[C@H]1CN(C)C(=O)Nc1ccccc1C(F)(F)F
inactive: cytotoxicity call (HSkMC) | cytotoxicity call (HepG2) | growth inhibition call (S. aureus RN4220)
